Over roughly 33,000 sequences, “E-score (-0.5 to 0.5)” has its median near -0.021; the highest 2% begin near 0.32. The list shows a part of the results.

The results in this text go back to the supplement of paper PMC3334620.

The assay addresses T1, Zap1 (UniProt P47043).
T1 sequence: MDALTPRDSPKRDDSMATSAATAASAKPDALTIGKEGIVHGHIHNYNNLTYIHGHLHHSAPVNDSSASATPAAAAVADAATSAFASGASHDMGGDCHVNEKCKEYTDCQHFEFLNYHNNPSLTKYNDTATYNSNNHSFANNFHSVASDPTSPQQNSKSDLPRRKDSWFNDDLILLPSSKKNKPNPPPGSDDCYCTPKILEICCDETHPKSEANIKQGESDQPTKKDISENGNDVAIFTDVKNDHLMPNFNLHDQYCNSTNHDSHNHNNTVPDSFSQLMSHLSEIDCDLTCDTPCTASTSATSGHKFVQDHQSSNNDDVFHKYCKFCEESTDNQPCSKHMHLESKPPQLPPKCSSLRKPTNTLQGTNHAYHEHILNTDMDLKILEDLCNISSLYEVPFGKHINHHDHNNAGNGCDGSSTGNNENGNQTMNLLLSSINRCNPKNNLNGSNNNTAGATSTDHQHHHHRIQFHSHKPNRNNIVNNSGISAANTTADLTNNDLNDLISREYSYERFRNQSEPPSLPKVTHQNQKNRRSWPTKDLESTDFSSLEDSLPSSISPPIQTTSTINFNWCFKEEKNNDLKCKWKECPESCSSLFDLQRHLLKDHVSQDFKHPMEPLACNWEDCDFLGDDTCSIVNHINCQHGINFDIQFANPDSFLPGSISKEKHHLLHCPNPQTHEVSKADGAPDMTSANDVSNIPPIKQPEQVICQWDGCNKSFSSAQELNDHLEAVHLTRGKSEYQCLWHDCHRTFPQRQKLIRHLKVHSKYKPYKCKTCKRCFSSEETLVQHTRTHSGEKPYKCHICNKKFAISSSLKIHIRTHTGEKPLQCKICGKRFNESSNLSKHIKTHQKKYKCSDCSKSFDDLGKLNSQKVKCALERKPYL
The assay is described as follows: PBM E-score (8-mer binding enrichment) (E-score (-0.5 to 0.5)); higher = stronger / more preferred TF binding; most listed sequences are background and not binding sites. As to conditions: protein concentration: 200 nM; construct: GST-full length. A digest of the protocol:
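Yeast transcription factors carrying a GST tag, as full-length proteins or DNA-binding domains, were produced by PURExpress in vitro transcription/translation. About 100-200 nM protein was applied to universal all-10-mer Agilent arrays, double-stranded by primer extension on fresh or once-stripped slides. Bound protein was detected with fluorescent anti-GST, and scans were normalised with masliner. The Universal PBM Analysis Suite gave each ungapped eight-base word, pooled with its reverse complement, an E-score, a modified Wilcoxon-Mann-Whitney statistic.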
Regarding ATCGGATG, the “PBM E-score” value is -0.116.

Consider AACGTAAG, for which the “PBM E-score” value is -0.194.

As for CTTGCAGC, the “PBM E-score” value is -0.0954.

For the sequence GATTCTGA, the “PBM E-score” value worked out at 0.0221.

As to CAATACTG, the “PBM E-score” value was determined as 0.0373.

Consider ATCTTTAC, for which the “PBM E-score” value came to 0.0364.

For the sequence GCCCGAAC, the “PBM E-score” value was -0.142.

Consider ACTCCGTC, for which the “PBM E-score” value is -0.104.

In the case of AGCTAGCC, the “PBM E-score” value was -0.182.

For CCTCAACC, the “PBM E-score” value was 0.00507.

For AAGTGGGA, the “PBM E-score” value was -0.0615.

Take CTCTCGGC: the “PBM E-score” value was -0.00869.

With GGAAGGAA, the “PBM E-score” value is -0.202.

Regarding AGTCCCTC, the “PBM E-score” value was -0.299.

As for ACTTGTGA, the “PBM E-score” value turned out to be 0.0666.

Regarding ATTCGAGA, the “PBM E-score” value is 0.0862.

In the case of AAGGTATG, the “PBM E-score” value amounted to 0.226.

In the case of CTCCCGCA, the “PBM E-score” value is -0.123.

Consider GACATCAA, for which the “PBM E-score” value came out at 0.104.

Turning to GGTAGTAC, the “PBM E-score” value stood at 0.248.

For ACCCACCC, the “PBM E-score” value was 0.373.

For AGAAAGCA, the “PBM E-score” value was -0.00472.

For the sequence TGAAAACA, the “PBM E-score” value stood at 0.202.

In the case of AACACAAG, the “PBM E-score” value was -0.00912.

Regarding AACACAGC, the “PBM E-score” value was 0.11.

For CGGCTTGC, the “PBM E-score” value is -0.0434.

For the sequence ATCTATAC, the “PBM E-score” value was -0.0224.

With CCACTCCC, the “PBM E-score” value is -0.151.

In the case of CAGGCGGC, the “PBM E-score” value was -0.228.

Take CATATCGA: the “PBM E-score” value was -0.118.

For GGTTGGGA, the “PBM E-score” value was 0.11.

CTCAACAC: the “PBM E-score” value worked out at 0.0925.

As for ACACTTAT, the “PBM E-score” value was -0.101.

Regarding CACTTCAG, the “PBM E-score” value was -0.152.

With ACCGTACT, the “PBM E-score” value came to 0.141.

For the sequence AATCCTCT, the “PBM E-score” value is -0.302.

With ACCGTTGA, the “PBM E-score” value was 0.0816.

For CTGACCCC, the “PBM E-score” value came to 0.12.

As for ATACAGGG, the “PBM E-score” value is 0.174.

For CTCTACTA, the “PBM E-score” value turned out to be 0.0286.

Consider CAGTCTCG, for which the “PBM E-score” value is -0.268.

As for ATACGCGA, the “PBM E-score” value turned out to be 0.108.

On to AATACGAT, for which the “PBM E-score” value stood at 0.0187.

As for CCGATGCA, the “PBM E-score” value is -0.0314.

In the case of CCGGATCA, the “PBM E-score” value was -0.0518.

Regarding GTTGGCGA, the “PBM E-score” value was -0.0774.

For CCTGTGCC, the “PBM E-score” value is -0.107.

GATAGCGA: the “PBM E-score” value is -0.099.

In the case of ATACCGCA, the “PBM E-score” value was 0.0517.

As to CTGGTCCA, the “PBM E-score” value was -0.0205.

For the sequence AGAAGAAG, the “PBM E-score” value was 0.00119.

Regarding CTCAGGCA, the “PBM E-score” value was -0.158.

Regarding CCAGCTAG, the “PBM E-score” value was -0.187.

For GCCGCAAC, the “PBM E-score” value was 0.218.

As to ATACAGAG, the “PBM E-score” value is 0.023.

For AGTACGTG, the “PBM E-score” value was -0.117.

On to ATCAACGC, for which the “PBM E-score” value is -0.0956.

Regarding GGTGCCCA, the “PBM E-score” value came to 0.0667.

Consider GCTGACAA, for which the “PBM E-score” value was determined as 0.118.

As for AAAATCCC, the “PBM E-score” value was -0.0263.

With CTTGCAAC, the “PBM E-score” value turned out to be 0.0364.

Take AAGCCTGA: the “PBM E-score” value is -0.233.

On to GTACTAGA, for which the “PBM E-score” value came to 0.169.

Regarding CGCGGTCA, the “PBM E-score” value is 0.23.

As for ACTTACAG, the “PBM E-score” value was 0.0195.

ACTTAGTA: the “PBM E-score” value is 0.0752.

ACATCGGG: the “PBM E-score” value was -0.078.

GAACCTAC: the “PBM E-score” value was 0.0424.

For the sequence CTAAGTCA, the “PBM E-score” value is -0.245.

As to GGTTGGCA, the “PBM E-score” value was 0.0593.

With CATTCGTC, the “PBM E-score” value was -0.111.

For AATTCGCC, the “PBM E-score” value was -0.052.

ATAGCTGC: the “PBM E-score” value was -0.13.

On to GCGGGCAA, for which the “PBM E-score” value came out at 0.0256.

As for CTACGTGA, the “PBM E-score” value is -0.0697.

For the sequence CCCGAGAG, the “PBM E-score” value amounted to 0.168.

As to CCCAACTA, the “PBM E-score” value turned out to be 0.00333.

CCCATCTA: the “PBM E-score” value was -0.0762.

Consider ACACCATA, for which the “PBM E-score” value was found to be 0.219.

Regarding ACTACGTA, the “PBM E-score” value was -0.194.

Consider ATGATCCA, for which the “PBM E-score” value is -0.0668.

AGCATATC: the “PBM E-score” value was -0.21.

Take AATATTGT: the “PBM E-score” value is 0.287.

Consider GCGTTTGA, for which the “PBM E-score” value was -0.0767.

On to AATCTAAC, for which the “PBM E-score” value worked out at 0.127.

In the case of TAACCATA, the “PBM E-score” value amounted to 0.44.
